# This is one part of the list. Most values come without repeats; read them as rough.
# Tests used:
# Assay in all cases: cell count relative to DMSO control; melanoma cells; higher = more viable cells
# Settings in all cases: library dose: standard library concentration; 72 h
# G361 = test system: G361
# IPC-298 = test system: IPC-298
# IST-MEL1 = test system: IST-MEL1
# LB2518-MEL = test system: LB2518-MEL
# LOXIMVI = test system: LOXIMVI
# MEL-HO = test system: MEL-HO
# MZ2-MEL = test system: MZ2-MEL
# MeWo = test system: MeWo
# RPMI7951 = test system: RPMI7951
# RVH-421 = test system: RVH-421
# SkMel28 = test system: SkMel28
# SkMel2 = test system: SkMel2
# SkMel30 = test system: SkMel30
# SkMel5 = test system: SkMel5
# UACC257 = test system: UACC257
# UACC62 = test system: UACC62
# WM115 = test system: WM115
# WM1716 = test system: WM1716
# WM1745 = test system: WM1745
# WM3526 = test system: WM3526
# 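Note: cells treated in 1,536-well plates, then fixed and DAPI-stained, with nuclei counted from automated high-throughput microscope images.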
Compound,cell count (G361),cell count (IPC-298),cell count (IST-MEL1),cell count (LB2518-MEL),cell count (LOXIMVI),cell count (MEL-HO),cell count (MZ2-MEL),cell count (MeWo),cell count (RPMI7951),cell count (RVH-421),cell count (SkMel28),cell count (SkMel2),cell count (SkMel30),cell count (SkMel5),cell count (UACC257),cell count (UACC62),cell count (WM115),cell count (WM1716),cell count (WM1745),cell count (WM3526)
"C#Cc1cccc(Nc2ncnc3cc(OCCOC)c(OCCOC)cc23)c1 [erlotinib] + Cn1cncc1[C@@](N)(c1ccc(Cl)cc1)c1ccc2c(c1)c(-c1cccc(Cl)c1)cc(=O)n2C [tipifarnib] (first compound 4 µM, partner dose 0.05 µM)",59.9%,65.7%,88.8%,36.9%,66.9%,86.7%,74%,65.1%,52.7%,58.6%,51.5%,80.9%,65.9%,52.7%,84.8%,41.9%,59.8%,55.3%,64.4%,76.7%
"O=C(CCCCCCC(=O)Nc1ccccc1)NO [vorinostat] + COC(=O)c1sccc1S(=O)(=O)Nc1ccc(Nc2ccccc2)cc1OC [GSK0660] (first compound 0.4 µM, partner dose 5 µM)",73.6%,72.4%,96.9%,93.4%,95%,100%,78.5%,88.7%,75.4%,95.4%,50.4%,80%,104%,74.7%,75.4%,80.4%,89.5%,88.9%,86%,76.8%
"Cn1c(Nc2ccc(C(F)(F)F)cc2)nc2cc(Oc3ccnc(-c4ncc(C(F)(F)F)[nH]4)c3)ccc21 + COc1ccc(COc2ccc(Cc3cnc(N)nc3N)cc2OC)cc1 [GW2580] (first compound 0.4 µM, partner dose 5 µM)",28.3%,48.2%,97%,41.9%,98.7%,73.8%,66.2%,66.9%,58.8%,63.7%,38.8%,51.5%,57.4%,43.6%,82.9%,67%,46%,81.2%,63.4%,50.8%
"Nc1cccc2c1CN(C1CCC(=O)NC1=O)C2=O (stereo not given) [lenalidomide] + COc1ccc2c(c1)CCC1C2CCC2(C)C(NCCCCCCN3C(=O)C=CC3=O)CCC12 [U73122] (first compound 5 µM, partner dose 2 µM)",75.6%,99.6%,5.94%,103%,203%,102%,106%,90.4%,36%,112%,107%,81.9%,106%,66.7%,88.9%,68.8%,79%,82.1%,80.9%,95.9%
"COCC[n+]1c2c(n(Cc3cnccn3)c1C)C(=O)c1ccccc1C2=O + Oc1nc(-c2ccc(C(F)(F)F)cc2)nc2c1CSCC2 [XAV939] (first compound 0.002 µM, partner dose 10 µM)",53.9%,46.9%,44.8%,27.7%,84%,78.4%,12.6%,81.9%,34.6%,106%,28.3%,39.4%,70.2%,37.3%,20.1%,77.9%,64.5%,72.7%,70%,37%
"O=C(CCCCCCC(=O)Nc1ccccc1)NO [vorinostat] + CO[C@@H]1[C@H](N(C)C(=O)c2ccccc2)C[C@H]2O[C@]1(C)n1c3ccccc3c3c4c(c5c6ccccc6n2c5c31)C(=O)NC4 [Midostaurin] (first compound 0.4 µM, partner dose 0.4 µM)",28.2%,48.6%,62.2%,51.5%,41.6%,74.7%,48.6%,67.4%,21.7%,57.4%,32.3%,29.5%,42.8%,47.2%,46.8%,58.5%,36.9%,42.1%,37.6%,45.4%
"OCc1c[nH]c2ccccc12 [Indole-3-carbinol] + C=CCn1c(=O)c2cnc(Nc3ccc(N4CCN(C)CC4)cc3)nc2n1-c1cccc(C(C)(C)O)n1 [MK1775] (first compound 4 µM, partner dose 0.1 µM)",86.2%,100%,81.3%,71%,79.4%,76.7%,112%,82.8%,75.7%,106%,46.9%,76.8%,73.9%,69.1%,89%,79%,78%,83.7%,56.1%,75.6%
"Nc1cccc2c1CN(C1CCC(=O)NC1=O)C2=O (stereo not given) [lenalidomide] + CN(NC(=O)CC(=O)NN(C)C(=S)c1ccccc1)C(=S)c1ccccc1 [STA4783] (first compound 5 µM, partner dose 0.03 µM)",38.7%,64.1%,13.7%,17.1%,63.1%,78.1%,105%,13.6%,86.4%,63.3%,26.7%,73.5%,90.4%,45.7%,101%,52%,22.4%,74.3%,29.5%,97.8%
"COCC[n+]1c2c(n(Cc3cnccn3)c1C)C(=O)c1ccccc1C2=O + CC(C)CCN1c2nc(Nc3cc(F)c(O)c(F)c3)ncc2N(C)C(=O)C1C [BID1870] (first compound 0.002 µM, partner dose 1 µM)",49.6%,35.4%,46.7%,14.5%,86.3%,57.5%,26.7%,24.4%,43.2%,84.6%,40.2%,19.1%,44.8%,32.7%,24.7%,51.2%,64%,52.1%,83.1%,26.9%
"Clc1ccc(Nc2nnc(Cc3ccncc3)c3ccccc23)cc1 [vatalanib] + CC(C)(C)c1cnc(CSc2cnc(NC(=O)C3CCNCC3)s2)o1 [SNS-032] (first compound 10 µM, partner dose 0.05 µM)",53.3%,76.9%,78.5%,64.7%,69.2%,67.7%,62.3%,58%,38.2%,64.2%,53.7%,55.5%,70.5%,34.6%,59.4%,64.4%,54.8%,67.4%,36.1%,77.6%
"Nc1cccc2c1CN(C1CCC(=O)NC1=O)C2=O (stereo not given) [lenalidomide] + O=S(=O)(c1ccccc1)N(CC(F)(F)F)c1ccc(C(O)(C(F)(F)F)C(F)(F)F)cc1 [T0901317] (first compound 5 µM, partner dose 7 µM)",77.9%,82.4%,86.6%,124%,97.4%,94.4%,103%,93%,130%,71.3%,65.6%,92.6%,106%,87.6%,87.6%,91.5%,95.8%,83.7%,79.7%,82.2%
"O=C(CCCCCCC(=O)Nc1ccccc1)NO [vorinostat] + COc1cc(N2CCC(N3CCN(C)CC3)CC2)ccc1Nc1ncc(Cl)c(Nc2ccccc2S(=O)(=O)C(C)C)n1 [NVP-TAE684] (first compound 0.4 µM, partner dose 0.4 µM)",58%,85.1%,114%,78.3%,78.3%,84.9%,86%,64%,49.1%,73.4%,47.7%,52.4%,101%,64.5%,57.8%,74.3%,80.8%,87.2%,50.6%,50.2%
"O=C(CCCCCCC(=O)Nc1ccccc1)NO [vorinostat] + O=C(O)C(=O)Nc1sc2c(c1C(=O)O)CCNC2 [TCS401] (first compound 0.4 µM, partner dose 8.33333 µM)",69.1%,76.2%,106%,84.2%,86.4%,89.5%,93.4%,95.8%,81.5%,73.5%,48.4%,67.2%,98.2%,71.7%,67.8%,81.1%,58.9%,81.3%,75.5%,72.1%
"Cn1c(Nc2ccc(C(F)(F)F)cc2)nc2cc(Oc3ccnc(-c4ncc(C(F)(F)F)[nH]4)c3)ccc21 + COc1cc(N2CCC(N3CCN(C)CC3)CC2)ccc1Nc1ncc(Cl)c(Nc2ccccc2S(=O)(=O)C(C)C)n1 [NVP-TAE684] (first compound 0.4 µM, partner dose 0.4 µM)",15.1%,48%,98.7%,26.2%,61.3%,58.4%,51.5%,44.9%,48.7%,51.9%,29.7%,16.5%,50.1%,37.3%,65.7%,57.5%,37.2%,67.6%,30.6%,35.5%
"O=C(CCCCCCC(=O)Nc1ccccc1)NO [vorinostat] + c1cc(-c2cnn3cc(-c4ccc(OCCN5CCCCC5)cc4)cnc23)ccn1 [Dorsomorphin] (first compound 0.4 µM, partner dose 2 µM)",40.8%,83.9%,98.1%,87.6%,85%,79.4%,72.7%,65.9%,61.1%,90.5%,42.3%,76.2%,67.8%,52.6%,57%,47.7%,55.1%,86.3%,61.9%,66.9%
"C#Cc1cccc(Nc2ncnc3cc(OCCOC)c(OCCOC)cc23)c1 [erlotinib] + O=C(CCCCCCC(=O)Nc1ccccc1)NO [vorinostat] (first compound 4 µM, partner dose 0.4 µM)",62.3%,70.7%,91%,66.1%,59.5%,77.9%,94.5%,96.4%,58.8%,94.8%,60.8%,61.1%,89%,83.2%,96%,69%,94.4%,80.1%,77.9%,59.9%
"O=C(CCCCCCC(=O)Nc1ccccc1)NO [vorinostat] + COc1ccc2c(c1)CCC1C2CCC2(C)C(NCCCCCCN3C(=O)C=CC3=O)CCC12 [U73122] (first compound 0.4 µM, partner dose 2 µM)",75.7%,87.7%,87.4%,83.2%,44.5%,76.2%,97.8%,62.9%,28.3%,98.8%,45%,69.9%,95.5%,62.5%,57.3%,59.8%,77.5%,81.2%,71.5%,61.4%
